# Experimental data: PubChem BioAssay AID2676 (National Center for Advancing Translational Sciences (NCATS), 2010)
# Where “and” joins values, the source holds several entries; their conditions need not be identical. Equal values may be shown once. Hit rate of the full screen: of about 370,000 compounds, about 1,100 (0.3%) were called active. The shares of active, inactive and inconclusive entries below differ from those in the screen. The call rests on the fitted dose curve; in most records, active means well fitted activation curve with a large enough effect; inconclusive means small, poorly fitted or top-dose-only effect; inactive means flat fitted curve, though single readings scatter. Where the call is inconclusive, the potency comes from a doubtful curve fit.
# Target: Relaxin receptor 1 (Homo sapiens) (UniProt Q9HBX9)
# Assay: qHTS Assay for Agonists of the Relaxin Receptor RXFP1; further: nearly all actives have a fitted effect of over 60% in size
# Conditions: HEK293T-RXFP1 cAMP TR-FRET, 30 min; series mostly up to 57.5 µM; activation: at the top concentration
# Excerpt: NIH Chemical Genomics Center [NCGC] NIH Molecular Libraries Probe Production Centers Network [MLPCN] MLPCN Grant: R03 MH085705-01A1 Assay Submitter (PI): Alexander Agoulnik NCGC Assay Overview: The relaxin hormone is involved in the variety of biological functions in normal tissues and diseases. The role of relaxin is well-established in female reproduction and parturition, mammary gland and endometrial development, maintenance of myometrial quiescence during pregnancy. Relaxin signaling through its G protein-coupled receptor (GPCR) RXFP1 results in ECM remodeling through regulation of collagen deposition, cell invasiveness, proliferation and overall tissue homeostasis. […] Recombinant human relaxin (rhRlx) is currently being tested in clinical trials as a protective agent in congestive heart failure, in treating severe preeclampsia, and as an anti-fibrotic agent in systemic sclerosis. Upon relaxin binding RXFP1 activation leads to the activation of adenylate cyclase (AC) via Gs. cAMP will activate PKA, which phosphorylates many signaling proteins. Thus, detection of cAMP increase is an easy and reliable indication of relaxin receptor activation. To screen for agonists of the relaxin receptor, a HEK293T cell line stably transfected with RXFP1 was used. RXFP1 activation was assayed by changes in cAMP levels as detected with a time-resolved fluorescence energy transfer (TR-FRET) cAMP detection kit.
# NCGC Assay Protocol Summary: This is a cell-based assay for cAMP second messenger response to screen for agonists of the RXFP1 receptor. The assay was conducted in the presence of a PDE4 inhibitor (Ro 20174). The cells were lysed and the cAMP levels were measured with a TR-FRET cAMP kit. Presence of cAMP in the cell lysate disrupts binding between the cryptate-labeled anti-cAMP and d2-labeled cAMP pair, leading to a decrease in the TR-FRET signal. Data were normalized to the controls for basal activity (buffer only) and 100% activity (29 nM porcine relaxin). The EC50 values were determined from concentration-response data modeled with the standard Hill equation 1536-well assay protocol for the HEK293 RXFP1 cAMP assay: (1) Add 3 ul HEK293 RXFP1 cell culture. 2000 cells/well in DMEM/F12, 10% FBS, 1x Pen/Strep (dispensed offline with MultiDrop Combi). (2) Incubate 16-24 hr at 37C, 5% CO2. (3) Add 1 ul 400uM Ro20174 in DPBS, 0.05% BSA, 0.005% Tween 20. (3) Add 23 nl compounds in DMSO solution. Final concentration was 0.5 - 58 uM. (4) Incubate 30 min at 37C, 5% CO2. (5) Add 1 ul cAMP-d2 in lysis buffer (HTRF cAMP HiRange kit, CisBio). (6) Add 1 ul anti-cAMP antibody-cryptate in lysis buffer (HTRF cAMP HiRange kit, CisBio). (7) Incubate 30 min at room temperature. (6) Detect the assay plate in a ViewLux plate reader (PerkinElmer) with Ex=320 nm, Em1=615 nm and Em2=665 nm. Keywords: relaxin, RXFP1, RXFP2, G-protein coupled receptor, cAMP, agonist, high throughput screening, MLSMR, MLSCN, NIH Roadmap, qHTS and NCGC
# On the % scale 0 is the no-effect control and ±100 the full control effect; potency means the concentration at half of the fitted maximal effect; tags describe the fitted curve by direction and shape.
# Chain of UniProt Q9HBX9 (Q9HBX9 whole entry, looked up): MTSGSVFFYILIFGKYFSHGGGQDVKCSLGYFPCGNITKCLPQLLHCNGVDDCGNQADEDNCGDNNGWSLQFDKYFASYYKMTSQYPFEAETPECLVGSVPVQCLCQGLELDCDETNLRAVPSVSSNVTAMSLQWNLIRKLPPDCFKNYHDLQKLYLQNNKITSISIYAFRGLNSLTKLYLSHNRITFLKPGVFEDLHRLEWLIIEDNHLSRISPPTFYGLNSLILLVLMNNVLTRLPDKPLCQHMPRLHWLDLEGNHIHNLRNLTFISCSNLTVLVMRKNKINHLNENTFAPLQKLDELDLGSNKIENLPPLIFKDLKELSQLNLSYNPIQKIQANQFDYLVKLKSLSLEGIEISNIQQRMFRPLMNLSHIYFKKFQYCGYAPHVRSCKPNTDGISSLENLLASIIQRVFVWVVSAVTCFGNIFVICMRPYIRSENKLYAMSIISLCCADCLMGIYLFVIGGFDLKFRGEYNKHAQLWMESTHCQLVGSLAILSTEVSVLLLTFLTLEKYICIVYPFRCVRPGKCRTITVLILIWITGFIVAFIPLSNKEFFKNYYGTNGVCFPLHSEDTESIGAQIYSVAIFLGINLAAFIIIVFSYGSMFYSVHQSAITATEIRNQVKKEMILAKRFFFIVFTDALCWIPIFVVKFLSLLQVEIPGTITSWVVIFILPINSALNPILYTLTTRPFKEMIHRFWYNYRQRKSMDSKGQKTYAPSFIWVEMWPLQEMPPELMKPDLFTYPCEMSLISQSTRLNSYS
SMILES,activation,Potency
Cc1noc(C)c1CSCC(=O)Oc1ccc(N(C)S(=O)(=O)c2ccc(Cl)cc2)cc1,inactive: -0.126%,
COc1ccc(OCCOC(=O)c2nc3nccc(C)n3n2)cc1,,"inconclusive: 28.2 µM [activator, partial curve]"
COc1ccccc1CNC(=O)CCc1c(C)nn(-c2ccc(N3CCOCC3)nn2)c1C,inactive: 3.33%,
Cc1ccc(CNC(=O)c2oc3c(c2C)-c2nn(Cc4ccc(Cl)cc4)cc2CC3)cc1,,"inconclusive: 3.98 µM [activator, full curve]"
CC(=O)c1cn(CC(=O)Nc2ccc(C)cc2)c2ccccc12,,"inconclusive: 28.2 µM [activator, single point]"
Cn1c(=O)c2c(ncn2CC(=O)NC2CCCCC2)n(C)c1=O,,active: 15.8 µM
Cc1cccc(C(=O)Nc2nnc(S(=O)(=O)N3CCC(C)CC3)s2)c1,,"inconclusive: 31.6 µM [activator, single point]"
COc1ccc(-c2cc(C(=O)Nc3ccc(C#N)cc3)no2)cc1,,"inconclusive: 14.1 µM [activator, partial curve]"
CNS(=O)(=O)c1ccc(NC(=O)c2nc3nc(C)cc(C(F)F)n3n2)cc1,,"inconclusive: 39.8 µM [activator, single point]"
CCN(CC)c1ccc(S(=O)(=O)N2CCOCC2)cc1NC(=O)CSc1nncn1C,,"inconclusive: 15.8 µM [activator, partial curve]"
CCOc1ccccc1CNC(=O)C1CCN(c2nnc(C)c3c(C)n(-c4ccc(C)cc4)nc23)CC1,,"inconclusive: 31.6 µM [activator, single point] and inconclusive: 35.5 µM [activator, single point]"
COc1ccc(C2/C(=C(/O)c3ccc4c(c3)CC(C)O4)C(=O)C(=O)N2Cc2ccncc2)cc1 (stereo not given),,"inconclusive: 20 µM [activator, single point]"
CC(=O)c1ccc(NC(=O)CSc2nnc(NC(=O)c3ccco3)s2)cc1,,"inconclusive: 35.5 µM [activator, single point]"
OCCCNc1nc(-c2ccc(Br)cc2)nnc1-c1ccc(Cl)cc1,inactive: 1.76%,
O=C(CSc1ccc2nnc(-c3cccnc3)n2n1)N1CCOCC1,,"inconclusive: 17.8 µM [activator, partial curve]"
CCCCNC(=O)Nc1ccc2c(c1)N(C)C(=O)c1ccccc1S2,,"inconclusive: 39.8 µM [activator, single point]"
CCOC(=O)c1ccc(NC2Nc3cc(C)nn3S2)cc1 (stereo not given),,"inconclusive: 39.8 µM [activator, single point]"
CCCC(=O)Nc1ccc2c(c1)nc1n2CCN(CCOC)C1,,"inconclusive: 5.62 µM [activator, full curve]"
CCOC(=O)c1cccc(NC(=O)c2cc3cc4cc(OC)ccc4nc3s2)c1,,"inconclusive: 28.2 µM [activator, partial curve]"
O=C(NCc1cccnc1)c1cc([N+](=O)[O-])ccc1N1CCOCC1,,"inconclusive: 25.1 µM [activator, partial curve]"

SMILES,activation,Potency
CCC(C)c1ccc(-n2c(=O)c3ccccc3n3c(=S)[nH]nc23)cc1 (stereo not given),,"inconclusive: 39.8 µM [activator, single point]"
O=C(OCc1nc2ccsc2c(=O)[nH]1)c1cccc(S(=O)(=O)N2CCOCC2)c1,,"inconclusive: 28.2 µM [activator, partial curve]"
Cc1ccc(NC(=O)Cn2cc(S(=O)(=O)c3ccc(C)cc3)c(=O)c3cc(F)ccc32)cc1,,"inconclusive: 35.5 µM [activator, single point]"
Brc1ccc(-c2cn3c(n2)CCc2ccc4cccnc4c2-3)cc1,inactive: 4.05%,
Nc1c2c(nc3cccc(Cl)c13)N(c1ccccc1)CC2,,"inconclusive: 28.2 µM [activator, single point]"
COc1ccc(-n2nnc3c(=O)n(CC(=O)NCC4CCCO4)cnc32)cc1 (stereo not given),,active: 11.2 µM
Cn1c(O)c(/C=N/NC(=O)c2cc3ccccc3cc2O)c2ccccc21,inactive: 5.42%,
CCOC(=O)c1c(C)[nH]c(C)c1S(=O)(=O)N1CCCC(C(=O)N2CCN(c3cccc(Cl)c3)CC2)C1 (stereo not given),inactive: 1.82%,
Cc1nn(-c2ccccc2)c2sc(C(=O)c3c(N)n(C)c(=O)n(C)c3=O)cc12,,"inconclusive: 39.8 µM [activator, single point]"
COc1cc(/C=N/Nc2nc(=O)[nH]nc2C)cc([N+](=O)[O-])c1O,,"inconclusive: 28.2 µM [activator, partial curve]"
Cc1ccc(NC(=O)Cn2c(=O)n(CCC(C)C)c(=O)c3cccnc32)cc1C,,"inconclusive: 39.8 µM [activator, single point]"
O=c1c2sccc2nc(SCc2cc(=O)n3cc(Br)ccc3n2)n1Cc1ccccn1,,active: 25.1 µM
O=C1CC(N2CCN(c3nc4ccccc4s3)CC2)C(=O)N1Cc1cccs1 (stereo not given),inactive: 0.0174%,
COc1ccc(-c2cc(C(F)(F)F)nc(SCC(=O)NCc3ccc(F)cc3)n2)cc1,,"inconclusive: 39.8 µM [activator, single point]"
COc1cc(/C=C/C(=O)OCC(=O)Nc2ccccc2Cl)cc(OC)c1OC,,"inconclusive: 39.8 µM [activator, single point]"
CC(C)CN(c1ccccc1)S(=O)(=O)c1nnc(NC(=O)c2ccco2)s1,,"inconclusive: 35.5 µM [activator, single point]"
Cc1onc(-c2ccccc2)c1C(=O)Nc1cccc2nsnc12,,"inconclusive: 28.2 µM [activator, single point]"
Cc1cc(C)c2nc(SCC(=O)N3CCCCC3)c(C#N)cc2c1,,"inconclusive: 35.5 µM [activator, single point]"
O=C(COC(=O)CSc1cccc2cccc(Cl)c12)Nc1ncc(C(F)(F)F)cc1Cl,,"inconclusive: 25.1 µM [activator, partial curve]"
Cc1cc(/C([O-])=C(/C(=S)Nc2ccc(F)cc2)[n+]2ccccc2)c(C)n1Cc1ccccc1Cl,,"inconclusive: 25.1 µM [activator, single point]"
